# Measurements reported in PubChem BioAssay AID1508623 (National Center for Advancing Translational Sciences (NCATS), 2021).
# Hit rate of the full screen: of about 48,000 compounds, about 450 (0.94%) were called active. Inconclusive results (about 19%) are left out. Calls follow the shape of the dose curve; as a rule, active = well fitted inhibition curve with a large enough effect; inconclusive = small, poorly fitted or top-dose-only effect; inactive = no such curve, though single readings can be large or run the other way. Some of the results follow.
# Test: Primary qHTS for Identification of Small Molecule Inhibitors of Huntingtin Promoter Activity; also: nearly all actives have a fitted effect of over 50% in size
# Details: HEK293 HTT promoter firefly luciferase reporter (activity 0% = vehicle and -100% = no light), 24 h; series mostly up to 57.5 µM; activity change, negative = inhibition: at the top concentration
# Method in brief: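 HEK293 luciferase promoter-reporter cells (2,500/well) plated 24 h, then compounds added at up to 57.5 uM final for 24 h at 37 °C. Firefly luminescence by Dual-Glo, normalized to vehicle (0%) and zero RLU (-100%).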
row,Structure (SMILES),"activity change, negative = inhibition"
1,CCOc1ccc(NS(=O)(=O)c2cc3c(cc2Cl)NC(=O)CO3)cc1,inactive: -7.01%
2,Cc1cc(C)c(NC(=O)CCS(=O)(=O)c2cc3c(cc2Cl)NC(=O)CO3)c(C)c1,inactive: -11.2%
3,O=C(CSCn1nnc2c(=O)[nH]c(Cc3ccc(F)cc3)nc21)Nc1cccc(C(F)(F)F)c1,inactive: -14.5%
4,CN1CCC(OC(c2ccccc2)c2ccccc2)CC1,inactive: 0.638%
5,CC(=O)Nc1ccc(NC(=O)CCCn2nc(C)c3sc4ccccc4c3c2=O)cc1,inactive: 4.1%
6,COc1cc2c(cc1OC)C(COc1cccc(C(F)(F)F)c1)N(C(=O)c1ccc(S(=O)(=O)N3CCCC3)cc1)CC2 (centres undefined),inactive: -22.8%
7,CCn1cc(C(=O)N2CCN(c3ccc(C)cc3)C(C)C2)c(=O)c2cc(S(=O)(=O)N3CCCC3)ccc21 (centres undefined),inactive: 55.9% [at 11.5 µM]
8,CCC(C)NC(=O)C1CCN(S(=O)(=O)c2ccc3c(c2)CCCN3C(C)=O)CC1 (centres undefined),inactive: -8.55%
9,CCc1ccccc1NC(=O)C(=O)NCCCN1CCOCC1,inactive: -7.38%
10,CNC(=O)CCCN1C(=O)c2cccnc2Sc2ccccc21,inactive: -8.02%
11,Cc1nc2ccc(S(=O)(=O)N(CC(=O)Nc3ccc(F)cc3F)Cc3ccccc3)cc2s1,inactive: -26.9%
12,CCOc1ccc(NC(=O)c2ccc3[nH]c(C)c(C)c3c2)cc1,inactive: 1.31%
13,O=C(Cn1c(SCc2ccccc2F)nc2ccncc21)Nc1ccccc1C(F)(F)F,inactive: 5.36%
14,Cc1ccc(S(=O)(=O)Nc2cccc(-c3cn4cccc(C)c4n3)c2)c(C)c1,inactive: -24.6%
15,O=C(Cn1c(=O)c2cccn2c2cccnc21)NCc1cccc(F)c1,inactive: 1.88%
16,CN(C)C(=O)Oc1cccc([N+](C)(C)C)c1,inactive: 15.9%
17,CCCCN(C)C(=O)c1cn(C)c2ccc(S(=O)(=O)N3CCC(C)CC3)cc2c1=O,inactive: -9.83%
18,COc1ccccc1NC(=O)Cn1c(=O)n(Cc2ccccc2)c(=O)c2c1c1cc(C)ccc1n2C,inactive: -4.42%
19,CC(NC(=O)CSc1n[nH]c(-c2ccccc2Cl)n1)c1nc2ccccc2[nH]1 (centres undefined),inactive: 0.426%
20,Cc1ccsc1CN1CCc2nc(Nc3ccccc3)ncc2C1,inactive: 30.1%
21,O=C(c1cnn(-c2ccc(F)cc2)c1-n1cccc1)N1CCN(c2ccc(F)cc2)CC1,inactive: -26.1%
22,CC1=C(C(=O)Nc2cccc(Cl)c2C)C2(CCCCCC2)OC1=O,inactive: -17.4%
23,CC1CCN(S(=O)(=O)c2ccc3c(c2)CCN3)CC1,inactive: -22.3%
24,O=c1[nH]cnc2[nH]ncc12,inactive
25,CCc1ccc(S(=O)(=O)c2nnn3c2nc(Nc2cc(OC)ccc2OC)c2sccc23)cc1,inactive: -2.2%

row,Structure (SMILES),"activity change, negative = inhibition"
1,COc1ccccc1Nc1sc(C(=O)c2ccc(C)cc2C)c(N)c1S(=O)(=O)c1ccccc1,inactive: -21.4%
2,O=S(=O)(NCCS(=O)(=O)N1CCN(c2ccccc2)CC1)c1ccc(Br)cc1,inactive: -16.3%
3,Cc1c(C(=O)Nc2nc(-c3ccc(F)cc3)ns2)oc2ccc(Cl)cc12,inactive: -2.25%
4,Cc1ccc(CCNC(=O)CS(=O)Cc2nc(-c3ccccc3Cl)oc2C)cc1 (centres undefined),inactive: -8.29%
5,O=C(Cc1ccccc1)Nc1sc2c(c1C(=O)Nc1ccc(Br)cc1)CCC2,inactive: -15.5%
6,Cc1ccc2oc(C(=O)Nc3cccc(Cl)c3)cc(=O)c2c1,inactive: -13.8% [at 11.5 µM]
7,COc1ccccc1C(=O)Nc1ccccc1OCc1cc(=O)n2ccccc2n1,inactive: -0.441%
8,O=C(CS)Nc1ccccc1,inactive: -21.6%
9,C/C=C1\[C@H]2C=C(C)C[C@]1(N)c1ccc(=O)[nH]c1C2,inactive: 4.1%
10,COc1cccc(N2CC(NC(=O)c3ccc(S(=O)(=O)N4CCOCC4)cc3)CC2=O)c1 (centres undefined),inactive: -28.1%
11,COc1ccc(CNc2nc3c(-c4ccccc4)nnn3c3ccccc23)cc1,inactive: -15.9%
12,Cc1cc(C)cc(OCC(=O)Nc2c(C)ccc3nsnc23)c1,inactive: -16.7%
13,Cc1ccccc1NC(=O)CSc1nc2nccnc2c(=O)n1CCc1c[nH]c2ccccc12,inactive: -1.66%
14,Cc1cccc(N2CCN(C(=O)Cn3nc(C)n4cccc4c3=O)CC2C)c1 (centres undefined),inactive: 12.4%
15,CCCCN(C)CCCNC(=O)Cn1ncc2c3ccccc3n(Cc3ccccc3)c2c1=O,inactive: 21.6%
16,Cc1cccc(NC(=O)CSc2nccn2Cc2ccc(F)cc2)c1C,inactive: -21.6%
17,Cc1ccc(C(=O)Nc2cc3c(cc2C)n(C)c(=O)c(=O)n3C)cc1,inactive: 3.58%
18,Cc1cc(O)c2c(c1)C(=O)c1cc(O)cc(O)c1C2=O,inactive: 4.01%
19,Cc1ccccc1NC(=O)c1ccc2c(c1)c(C)c(C)n2Cc1ccccc1,inactive: -24.6%
20,COCc1nc2ccccc2n1CCOc1cccc(C)c1,inactive: -13.8%
21,COc1ccc(S(=O)(=O)N2CCCN(CC(=O)Nc3ccc(NC(C)=O)cc3)CC2)cc1,inactive: -2.17%
22,COc1ccccc1NC(=O)CSC1=Nc2ccccc2C2=NC(CC(=O)NCc3ccco3)C(=O)N12 (centres undefined),inactive: 62.1%
23,Cc1ccc(NC(=O)CN2C(=O)CCc3cc(S(=O)(=O)N4CCOCC4)ccc32)cc1F,inactive: -24%
24,CCc1ccc(-n2nc(C)c3c(C)cc(=O)n(Cc4nc(-c5ccccc5)oc4C)c32)cc1,inactive: 2.15%
